# Whole data set: some 110,000 compounds, median “z-score” near -0.1, cut for the highest 2% near 2. Some of the results follow. Calls of active or inactive are those of the source.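 Rule for the calls: active = z-score in the third read window above 3 or below -3; inactive = the rest.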
# Target: Metabotropic glutamate receptor 8 (Rattus norvegicus) (UniProt P70579)
# Experiment: rat mGluR8 modulators via GIRK flux, primary screen, cell-based, thallium flux, HTS (AID 488969)
# Details: HEK293 rat mGluR8, GIRK (G protein-gated inwardly rectifying potassium channel) thallium flux, FluoZin2; at 10 µM; stronger effect = higher value; submaximal glutamate (EC20) added with thallium
# UniProt P70579, sequence (P70579 whole entry, looked up): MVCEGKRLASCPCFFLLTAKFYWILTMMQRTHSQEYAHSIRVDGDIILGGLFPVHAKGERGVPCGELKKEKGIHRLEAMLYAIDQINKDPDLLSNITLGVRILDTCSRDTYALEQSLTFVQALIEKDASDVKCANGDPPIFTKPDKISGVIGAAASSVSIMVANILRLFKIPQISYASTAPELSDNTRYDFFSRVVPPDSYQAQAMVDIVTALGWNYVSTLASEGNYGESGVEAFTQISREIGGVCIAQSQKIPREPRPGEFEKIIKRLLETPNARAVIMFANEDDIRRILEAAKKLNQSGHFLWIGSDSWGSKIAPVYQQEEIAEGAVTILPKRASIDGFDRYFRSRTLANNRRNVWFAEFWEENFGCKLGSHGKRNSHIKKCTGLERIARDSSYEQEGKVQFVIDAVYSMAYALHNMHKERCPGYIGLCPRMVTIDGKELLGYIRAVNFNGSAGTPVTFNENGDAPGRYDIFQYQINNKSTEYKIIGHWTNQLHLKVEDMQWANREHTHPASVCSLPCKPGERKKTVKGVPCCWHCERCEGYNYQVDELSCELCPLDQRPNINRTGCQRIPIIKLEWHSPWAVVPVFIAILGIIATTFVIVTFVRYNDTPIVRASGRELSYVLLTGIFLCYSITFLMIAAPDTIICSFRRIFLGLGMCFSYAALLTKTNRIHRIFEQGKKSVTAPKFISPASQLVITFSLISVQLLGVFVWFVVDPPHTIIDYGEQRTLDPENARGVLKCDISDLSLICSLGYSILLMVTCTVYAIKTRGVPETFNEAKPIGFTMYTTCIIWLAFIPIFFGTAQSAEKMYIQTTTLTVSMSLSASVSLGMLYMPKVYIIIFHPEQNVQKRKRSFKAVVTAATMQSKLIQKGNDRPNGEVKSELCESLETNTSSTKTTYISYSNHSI
row,Compound,z-score
1,COc1ccc(OCC(=O)OCCN(C)C)cc1,-0.208
2,CC(=O)NC(Cc1ccccc1)C(=O)NC1CCN(C(=O)c2ccc([N+](=O)[O-])cc2)CC1 (centres undefined),-0.0531
3,COc1ccc(CCNC(=O)C(=O)Nc2nccs2)cc1OC,-0.272
4,CCOC(=O)c1ccc(NC(=O)COc2ccc(S(=O)(=O)N3CCCC3)cc2)cc1,-0.501
5,Cc1cc(C)nc(NS(=O)(=O)c2ccc(NC(=S)NC(=O)C3CCCC3)cc2)n1,-0.797
6,Cc1ccc(S(=O)(=O)NCCCCCC(=O)Nc2nccs2)cc1,-0.569
7,COc1cc2[nH]c(=O)n(Cc3ccc(C(=O)NCC4CCCO4)cc3)c(=O)c2cc1OC (centres undefined),-0.461
8,CC(C)C1NC2(C(=O)c3ccccc3C2=O)C2C(=O)N(c3ccc(F)cc3)C(=O)C12 (centres undefined),1.24
9,COc1ccc(NC(=O)COC(=O)c2c(C)noc2C)c(OC)c1,0.0913
10,N#C/C(=C\c1ccc([N+](=O)[O-])cc1)c1nc(C2CC2)cs1,-0.465
11,COc1ccc(/C=C2\SC(=N)N(c3nccs3)C2=O)cc1OC,1.79
12,Cc1ccc(CN(C)C(=O)C2CCCN2C(=O)c2cccs2)o1 (centres undefined),0.944
13,COc1c(Br)cc(Br)cc1/C=N/n1c(C)nnc1C,1.26
14,COc1ccc(NC(=O)CSc2nc(-c3ccc(C)cc3)cc(C(F)(F)F)c2C#N)cc1,-0.0722
15,CCNc1nc(Oc2ccc(=O)[nH]n2)nc(N2CCOCC2)n1,-0.182
16,CC(=O)Nc1nc(C)c(C(C)=O)s1,-0.785
17,CCOC(=O)c1c(C)n(C)c2ccc(OCC(O)CN3CCC(C)CC3)cc12 (centres undefined),0.622
18,CNC(=O)Nc1cccc(C(F)(F)F)c1,0.321
19,CC(C)n1nc(C(=O)Oc2ccc(Cl)cc2)c2ccccc2c1=O,-0.75
20,COc1cc(C(=O)NC(=S)Nc2ccc3oc(=O)ccc3c2)cc(OC)c1OC,-0.0903
21,O=C(CN1CCOc2ccccc21)NC1CC1,0.154
22,Cc1nc2ccc(NC(=S)N3CCN(c4ccccn4)CC3)cc2nc1C,0.124
23,CN(c1cccc(NS(=O)(=O)c2cccs2)c1)S(C)(=O)=O,-0.251

row,Compound,z-score
1,Cc1ccccc1C1=NC(C(F)(F)F)(C(F)(F)F)c2c(n(C)c(=O)n(C)c2=O)N1,-0.116
2,Cc1ccc(C)c(NC2=NS(=O)(=O)c3ccccc32)c1,-0.652
3,Cc1cc(C)n2nc(-c3cnn(C)c3C(F)(F)F)c(Cl)c2n1,-0.113
4,CN(C)S(=O)(=O)Oc1cccc(C(=O)Nc2ccc(Cl)cc2)c1,-0.779
5,CCOC(=O)c1cc(C#N)c(Oc2ccccc2OC)nc1-c1ccccc1,-0.0696
6,COCCn1c(C)cc(C(=O)COC(=O)c2ccc[nH]c2=O)c1C,-0.085
7,Cc1ccc2c(n1)CC(C)(C)C/C2=N\O,-0.486
8,CCOC(=O)Cc1csc(NC(=O)COc2ccc3ccccc3c2)n1,-0.371
9,N#Cc1ccccc1NC(=O)CC1CCCCC1,-0.0885
10,CN(CC(=O)NC1CCCc2ccccc21)S(=O)(=O)c1ccc2c(c1)c(=O)n(C)c(=O)n2C (centres undefined),0.00391
11,COc1cc(C=O)c(Br)cc1OCc1ccc(C)cc1,-0.101
12,O=C(CSc1ccccn1)Nc1ccc(Br)cn1,-0.593
13,COC(=O)c1ccc(NC(=O)CSc2nc3ccccc3c(=O)[nH]2)cc1,-0.00634
14,O=C(Cc1cccs1)N1CCC(c2nc3c(nnn3Cc3ccccc3)c(=O)[nH]2)CC1,-0.11
15,Clc1ccccc1-c1nnn(Cc2ccc(-c3nn[nH]n3)cc2)n1,-0.648
16,COCCCNC(=O)CCc1nc2cccnc2n1Cc1ccccc1,-0.252
17,Fc1cccc(CSc2ccc(-c3ccc4c(c3)OCO4)nn2)c1,-0.151
18,Cc1cc(C)cc(C(=O)Nc2nnc(SCC(=O)N3CCCc4ccccc43)s2)c1,-0.235
19,Cc1ccc(CSCC(=O)N/N=C/c2ccc(OCC(=O)Nc3ccc(C)cc3)cc2)cc1,-0.0937
20,O=C(NC1CCN(C(=S)NCc2ccco2)CC1)C1CCCCC1,-0.0774
21,Cc1ccc(CNC(=O)CSc2nc3ccsc3c(=O)n2NC(=O)c2ccccc2)cc1,0.353
22,CC(C)CNc1nc(Oc2ccc(=O)[nH]n2)nc(N(C)C)n1,0.022
23,O=C(Cc1ccccc1)Nc1nc(=O)c2ccccc2s1,active: 5.11

row,Compound,z-score
1,O=C(/C=C1\NCC2c3ccccc3CCN2C1=O)c1ccccc1 (centres undefined),0.22
2,COC(=O)c1cccc(-n2c(C)cc(C=O)c2C)c1,-0.0226
3,COc1ccc(C2=Nc3cc(C)ccc3OC2)cc1,-0.187
4,Cc1ccc(NC(=O)c2ccc(S(=O)(=O)N3CCCC3)cc2)cc1,-0.497
5,O=C(NN=C1c2ccccc2-c2ccccc21)c1ccccn1,0.564
6,O=c1cc(C(Cl)(Cl)Cl)oc2c1ccc1ccccc12,-0.27
7,CC1CN(S(=O)(=O)c2ccc(NC(=O)CCCN3C(=O)c4ccccc4C3=O)cc2)CC(C)O1 (centres undefined),-0.131
8,CCOC(=O)C(NC=O)(NC(C)(C)C)C(=O)OCC,0.0436
9,O=c1cc(CSc2nnc(-c3ccco3)o2)c2ccccc2[nH]1,-0.31
10,CCOC(=O)C1=C(C)NC(=O)NC1,-0.302
11,O=C(CCCO)N/N=C/c1ccccc1[N+](=O)[O-],0.16
12,O=C(O)CCC(=O)OCC1CCCCC1,-0.0493
13,Cc1cc(C)c(NC(=O)c2oc3ccccc3c2COc2ccccc2)c(C)c1,-0.0974
14,Cc1cccc(NC(=O)NCC(F)(F)F)n1,-0.0151
15,CC(C)COc1ccc(C2NC(=O)NC2=O)cc1 (centres undefined),-0.105
16,O=C(CSc1nnc(Cc2ccccc2)o1)NC1CCCCC1,0.0927
17,CCCC(C(=O)O)N1C(=O)/C(=C/c2cccn2C)SC1=S (centres undefined),-0.401
18,CSc1nccc(N2CCN(c3ccc(F)cc3)CC2)n1,-0.0817
19,CCN1C(=O)CC(N2CCC(Cc3ccccc3)CC2)C1=O (centres undefined),-0.239
20,COc1ccc2[nH]c(=O)c(CNc3ccccc3)cc2c1,-0.111
21,CN(C)S(=O)(=O)c1ccc(N2CCCC2)c(C(=O)Nc2ccc(N3CCOCC3)cc2)c1,0.271
22,O=C(CSc1ncn[nH]1)NCCOc1ccccc1,-0.157
23,Cc1ccc(S(=O)(=O)N2CCN(CC(=O)N/N=C/c3ccc(C)o3)CC2)cc1,-0.141

row,Compound,z-score
1,COC(=O)c1cccc(C(=O)Nc2ccc(F)cc2)n1,-0.32
2,O=S(=O)(c1ccc(F)cc1)N1CCCC(CO)C1 (centres undefined),-0.0413
3,CCCCc1c(C)nc2ccc(C(=O)OCC)cc2c1Cl,-0.185
4,O=C(O)c1ccnc(C(=O)O)c1,0.295
5,C[N+](C)(C)CCCC(=O)c1ccc2c(c1)OCO2,-0.215
6,COc1ccc(S(=O)(=O)N2CCCCC2)cc1NC(=O)CSc1ncnc2ccccc12,-1.21
7,Cc1ccc2cc(C(c3nnnn3C(C)(C)C)N3CCCCCC3)c(=O)[nH]c2c1 (centres undefined),-1.23
8,COC(=O)N/N=C/c1cc([N+](=O)[O-])cc(Br)c1O,-0.298
9,Clc1ccc(Sc2ccc(/C=N/n3cnnc3)o2)cc1,-0.0826
10,Cc1ccc(C)c(Oc2nnnn2-c2ccccc2)c1,-1.56
11,Cc1occc1C(=O)NNC(=S)Nc1ccccc1,-0.355
12,Cc1ccc(-c2noc(CSc3nnc(Cc4ccccc4)n3-c3ccc(Cl)cc3)n2)cc1,-0.159
13,CCO/N=C(\C)c1c(O)c2ccccc2n(C)c1=O,-0.246
14,NC(=O)Cn1c(=O)n(CCCC(=O)NC2CCN(Cc3ccccc3)CC2)c(=O)c2ccccc21,-0.00606
15,O=C1c2ccccc2CC1Sc1nnc(-c2ccncc2)o1 (centres undefined),-1.32
16,CCOC(=O)C(=CNc1ccccc1C)C(=O)OCC,-1.41
17,Nc1c(Cl)cc(NC(=O)c2ccccc2C(=O)O)cc1Br,0.0673
18,Cc1ccccc1NC(=S)NCc1cccn1C,-0.488
19,CCOc1ccc(Oc2c(/C=N/NC(N)=O)c(C)nn2-c2ccccc2)cc1,0.235
20,COc1ccc(O)c(C(=O)c2cnc3onc(C(C)C)c3c2)c1,0.111
21,O=C(Oc1cccc([N+](=O)[O-])c1)c1cc(-c2ccccc2)nc2ccccc12,0.17
22,O=C(c1ccc(Nc2cccc(C(F)(F)F)c2)nc1)N1CCCC1,-0.0582
23,CCOc1ccc(NC(=O)/C=C/c2ccc(OC)cc2)c([N+](=O)[O-])c1,-0.515

row,Compound,z-score
1,Cc1cc(NC(=O)c2ccc(Br)c(S(=O)(=O)N3CCCC3)c2)no1,-0.32
2,CC1c2c([nH]c3ccccc23)CCC1C(=O)O (centres undefined),0.673
3,O=C(COC(=O)C1Cc2ccccc2CN1C(=O)c1ccccc1Cl)Nc1ccc(N2CCOCC2)cc1 (centres undefined),-1.35
4,COc1ccc(-c2nnn(CCc3nn[nH]n3)n2)cc1OC,0.508
5,O=C(CSc1nc2c(cnn2-c2ccc(F)cc2)c(=O)[nH]1)N1CCCCC1,0.533
6,COc1ccc(Cl)cc1NC(=O)CN1CCC(n2nnc3cc(C)ccc32)CC1,-0.93
7,CC(C)Cc1nc2oc3c(Cl)ncnc3c2c2c1CCC2,-0.937
8,CC(C)OC(=O)CC(=O)CSc1nc2c(cc1C#N)CCC2,-0.321
9,O=C(N/N=C/c1ccc(OCC(=O)N2CCCCC2)cc1)c1ccccc1,-0.172
10,CCNC(=S)NCCN1CCCCC1,-0.0769
11,O=C(NCCN1CCCC1=O)Nc1ccccc1,-0.197
12,CNc1nc(N/N=C/c2ccc([N+](=O)[O-])cc2)nc(Nc2ccccc2)n1,-0.339
13,CCC(C)NS(=O)(=O)c1ccc(OCC(=O)NCc2ccco2)cc1 (centres undefined),-0.116
14,CCOC(=O)c1[nH]c(C)c(C(=O)Nc2cc(OC)ccc2OC)c1C,-0.101
15,CC(C)c1cc(C(=O)Nc2cccc(Cl)c2)no1,0.246
16,C=CCn1c(-c2cccc(OC)c2)nc2nc3ccccc3nc21,-0.795
17,Cc1cccc(C)c1NC(=O)C1(NC(=O)C2CCCN2C(=O)OC(C)(C)C)CCCCC1 (centres undefined),-0.0399
18,O=S(=O)(c1cccc(C(F)(F)F)c1)N1CCN(c2ccccc2)CC1,-0.199
19,COC(=O)c1cc(=O)n(CCc2ccc(OC)c(OC)c2)c(=Nc2ccc(F)c(Cl)c2)s1,0.363
20,O=[N+]([O-])c1cc(/C=N/O)ccc1SCc1ccccc1,-0.179
21,COc1ccc(CNC(=O)/C=C/c2cc([N+](=O)[O-])ccc2OC(F)F)cc1OC,0.482
22,COc1cc(C(=O)NC(=S)Nc2ccc(Cl)c(C(=O)O)c2)cc(OC)c1OC,-0.211

# Source: PubChem BioAssay AID488969 (Vanderbilt High Throughput Screening Facility, 2010)
